Laboratory results reported in publication PMC11995724, “Antibiotic target discovery by integrated phenotypic and activity-based profiling of electrophilic fragments” (Cell chemical biology, 2025).
Among all 3,200 compounds or so, about 110 (3.4%) showed an effect of 50% or more. The list shows a part of the results.

test system: T1, V. cholerae SAD30; parameters: species or system S. aureus MSSA476 (TSB) or V. cholerae SAD30 (LB); 384-well bacterial growth screen at 25 uM, OD600 relative to DMSO control; settings: relative growth, OD600, LB; 25 µM; inhibitor
T1 construct: SAD30

Compound | % of control remaining [%]
C=CC(=O)NCc1ccc(OC)cc1 [1-K10, N-[(4-methoxyphenyl)methyl]prop-2-enamide] | 79.2227
CNC(=O)C(C#N)=Cc1cccc(C)c1C [9-D14, 2-cyano-3-(2,3-dimethylphenyl)-N-methylprop-2-enamide] | 82.189
CC(Cl)C(=O)N1CCC(C(=O)c2cccs2)CC1 (stereo not drawn) [7-L13, 2-chloro-1-[4-(thiophene-2-carbonyl)piperidin-1-yl]propan-1-one] | 77.9779
C=CC(=O)NC(C)(C)c1ccc(S(N)(=O)=O)cc1F [2-P17, N-[2-(2-fluoro-4-sulfamoylphenyl)propan-2-yl]prop-2-enamide] | 94.3646
O=C(CCl)NC(c1ccccc1)c1ccccc1 [6-M12, 2-chloro-N-(diphenylmethyl)acetamide] | 93.4307
C=CC(=O)N1Cc2c(C(=O)O)cnn2CC1C (stereo not drawn) [3-N18, 6-methyl-5-(prop-2-enoyl)-4H,5H,6H,7H-pyrazolo[1,5-a]pyrazine-3-carboxylic acid] | 99.5001
CC(Cl)C(=O)N1CCN(C(=O)c2ccc3ccccc3c2)CC1 (stereo not drawn) [7-E07, 2-chloro-1-[4-(naphthalene-2-carbonyl)piperazin-1-yl]propan-1-one] | 76.3919
C=CC(=O)Nc1ccc(N2CCN(CC)CC2)cc1 [1-D12, N-[4-(4-ethylpiperazin-1-yl)phenyl]prop-2-enamide] | 110.402
C=CC(=O)NCC1(C)CCS(=O)(=O)CC1 [1-G16, N-[(4-methyl-1,1-dioxo-1lambda6-thian-4-yl)methyl]prop-2-enamide] | 91.6293
O=C(CCl)Nc1nc(-c2cc(F)ccc2F)cs1 [4-L22, 2-chloro-N-[4-(2,5-difluorophenyl)-1,3-thiazol-2-yl]acetamide] | 111.624
Cc1cc(C(=O)CCl)co1 [10-A13, 2-chloro-1-(5-methylfuran-3-yl)ethan-1-one] | 114.397
COc1ccc(C=C(C#N)C(=O)Nc2nccs2)cc1O [8-G19, 2-cyano-3-(3-hydroxy-4-methoxyphenyl)-N-(1,3-thiazol-2-yl)prop-2-enamide] | 74.4392
C=CC(=O)NCC1CCCC1N1CCCS1(=O)=O (stereo not drawn) [3-L13, N-{[2-(1,1-dioxo-1lambda6,2-thiazolidin-2-yl)cyclopentyl]methyl}prop-2-enamide] | 89.796
CCOc1cc2c(cc1C=C(C#N)C(N)=O)OC(C)C2 (stereo not drawn) [9-D04, 2-cyano-3-(5-ethoxy-2-methyl-2,3-dihydro-1-benzofuran-6-yl)prop-2-enamide] | 94.9694
CC(Cl)C(=O)N1CCOCC1c1cccn1C (stereo not drawn) [7-A09, 2-chloro-1-[3-(1-methyl-1H-pyrrol-2-yl)morpholin-4-yl]propan-1-one] | 91.9874
N#CC(=Cc1ccc(O)cc1)C(=O)NCc1ccc(Cl)cc1 [8-B16, N-[(4-chlorophenyl)methyl]-2-cyano-3-(4-hydroxyphenyl)prop-2-enamide] | 74.5751
CCc1ccccc1NC(=O)CN(C)C(=O)CCl [6-L06, 2-chloro-N-{[(2-ethylphenyl)carbamoyl]methyl}-N-methylacetamide] | 89.1838
CC(NC(=O)CCl)C(=O)N1c2ccccc2CC1C (stereo not drawn) [7-N16, 2-chloro-N-[1-(2-methyl-2,3-dihydro-1H-indol-1-yl)-1-oxopropan-2-yl]acetamide] | 84.454
CC(Cl)C(=O)N1CCN(Cc2ccc(C(F)(F)F)cc2)C(=O)C1 (stereo not drawn) [6-N19, 4-(2-chloropropanoyl)-1-{[4-(trifluoromethyl)phenyl]methyl}piperazin-2-one] | 89.6388
N#CC(=Cc1ccncc1)C(=O)Nc1ccccc1Cl [8-N17, N-(2-chlorophenyl)-2-cyano-3-(pyridin-4-yl)prop-2-enamide] | 76.7505
C=CC(=O)N1CC(n2nc(C)cc2C)C1 [3-B04, 1-[3-(3,5-dimethyl-1H-pyrazol-1-yl)azetidin-1-yl]prop-2-en-1-one] | 113.968
COc1ccc(C2=NN(C(=O)CCl)C(c3ccco3)C2)cc1 (stereo not drawn) [4-N19, 2-chloro-1-[5-(furan-2-yl)-3-(4-methoxyphenyl)-4,5-dihydro-1H-pyrazol-1-yl]ethan-1-one] | 106.103
C=CC(=O)NCC12CC3CC(CC(C3)C1)C2 [1-F17, N-[(adamantan-1-yl)methyl]prop-2-enamide] | 83.4081

Compound | % of control remaining [%]
COc1cc(S(=O)(=O)N2CCOCC2)ccc1NC(=O)CCl [6-L12, 2-chloro-N-[2-methoxy-4-(morpholine-4-sulfonyl)phenyl]acetamide] | 88.8805
Cc1csc(C2(NC(=O)CCl)CCOCC2)n1 [7-J03, 2-chloro-N-[4-(4-methyl-1,3-thiazol-2-yl)oxan-4-yl]acetamide] | 96.4811
C/C(O)=C(\C#N)C(=O)Nc1ccc(-c2ccccc2Cl)cc1 [9-P22, (2Z)-N-{2'-chloro-[1,1'-biphenyl]-4-yl}-2-cyano-3-hydroxybut-2-enamide] | 88.8511
CC(Cl)C(=O)N1CCc2sccc2C1c1cccs1 (stereo not drawn) [7-K07, 2-chloro-1-[4-(thiophen-2-yl)-4H,5H,6H,7H-thieno[3,2-c]pyridin-5-yl]propan-1-one] | 54.0558
CCCN(Cc1ccc(C)cc1)C(=O)CCl [5-J09, 2-chloro-N-[(4-methylphenyl)methyl]-N-propylacetamide] | 94.9879
COc1cccc2c1CCC2(CO)NC(=O)CCl (stereo not drawn) [5-C20, 2-chloro-N-[1-(hydroxymethyl)-4-methoxy-2,3-dihydro-1H-inden-1-yl]acetamide] | 102.553
CC(Cl)C(=O)N(C)C1CCCCC1 (stereo not drawn) [5-J04, 2-chloro-N-cyclohexyl-N-methylpropanamide] | 102.89
O=C(CCl)N(Cc1ccccc1)Cc1cc2n(n1)CCCC2 [5-L03, N-benzyl-2-chloro-N-({4H,5H,6H,7H-pyrazolo[1,5-a]pyridin-2-yl}methyl)acetamide] | 109.278
O=C(CCl)Nc1ccc(S(=O)(=O)c2ccc(F)cc2)cc1 [6-O14, 2-chloro-N-[4-(4-fluorobenzenesulfonyl)phenyl]acetamide] | 92.9756
C=CC(=O)N(C)CC(=O)N1CCCC(CC(N)=O)CC1 (stereo not drawn) [3-C20, N-{2-[4-(carbamoylmethyl)azepan-1-yl]-2-oxoethyl}-N-methylprop-2-enamide] | 112.909
O=C(CCl)NCc1ccc(C(=O)N2CCCC2)cc1 [6-G04, 2-chloro-N-{[4-(pyrrolidine-1-carbonyl)phenyl]methyl}acetamide] | 99.3459
C=CC(=O)N1CCCCC1c1noc(C2CC2)n1 (stereo not drawn) [3-K12, 1-[2-(5-cyclopropyl-1,2,4-oxadiazol-3-yl)piperidin-1-yl]prop-2-en-1-one] | 86.4437
Cn1cc(C=C(C#N)C(=O)NCc2ccco2)cn1 [8-L06, 2-cyano-N-[(furan-2-yl)methyl]-3-(1-methyl-1H-pyrazol-4-yl)prop-2-enamide] | 71.584
CC(Cl)C(=O)N1CCNC(=O)C1Cc1nc2ccccc2o1 (stereo not drawn) [6-P03, 3-[(1,3-benzoxazol-2-yl)methyl]-4-(2-chloropropanoyl)piperazin-2-one] | 106.626
O=C(CCl)N1N=C(C=Cc2ccco2)CC1c1ccco1 (stereo not drawn) [4-M22, 2-chloro-1-[5-(furan-2-yl)-3-[2-(furan-2-yl)ethenyl]-4,5-dihydro-1H-pyrazol-1-yl]ethan-1-one] | 110.071
N#CC(=Cc1cc([N+](=O)[O-])ccc1Cl)C(N)=O [8-F21, 3-(2-chloro-5-nitrophenyl)-2-cyanoprop-2-enamide] | 76.0707
O=C(CCl)N(Cc1ccccc1)CC(F)(F)F [4-B20, N-benzyl-2-chloro-N-(2,2,2-trifluoroethyl)acetamide] | 107.138
C=CC(=O)Nc1ccc(C(=O)N2CCCCC2CS(C)(=O)=O)cc1 (stereo not drawn) [2-N18, N-{4-[2-(methanesulfonylmethyl)piperidine-1-carbonyl]phenyl}prop-2-enamide] | 91.1223
Cc1ncccc1OCC1CCCN1C(=O)C(C)Cl (stereo not drawn) [7-C18, 2-chloro-1-(2-{[(2-methylpyridin-3-yl)oxy]methyl}pyrrolidin-1-yl)propan-1-one] | 75.0702
C=CC(=O)Nc1cc(C(=O)O)ccc1O [1-A12, 4-hydroxy-3-(prop-2-enamido)benzoic acid] | 88.4903
N#CC(=Cc1ccc(C#N)cc1)C(=O)Nc1cccc(Cl)c1Cl [8-J05, 2-cyano-3-(4-cyanophenyl)-N-(2,3-dichlorophenyl)prop-2-enamide] | 72.9436
C=CC(=O)N(Cc1c(C)nn(CC)c1C)c1ccc2c(c1)COC2 [2-G13, N-(1,3-dihydro-2-benzofuran-5-yl)-N-[(1-ethyl-3,5-dimethyl-1H-pyrazol-4-yl)methyl]prop-2-enamide] | 73.058
